Measured values from PubChem BioAssay AID1645882 (National Center for Advancing Translational Sciences (NCATS), 2021).
The campaign covered roughly 16,000 compounds. About 120 (0.75%) were called active. Roughly 4% stayed inconclusive and do not appear here. Calls come from the whole dose curve; as a rule, active = well fitted inhibition curve with a large enough effect; inconclusive = small, poorly fitted or top-dose-only effect; inactive = no such curve, though single readings can be large or run the other way. The list shows a part of the results. Where a SMILES comes first, the peptide text is derived from it.

molecular target: Rap guanine nucleotide exchange factor 3 (Homo sapiens) (UniProt O95398); assay: Validation qHTS for antagonist of cAMP-regulated guanine nucleotide exchange factor 3 (EPAC1); conditions: EPAC1 Rap1B-BODIPY-GDP exchange, fluorescence; series mostly up to 150 µM; activity change, negative = inhibition: at the top concentration;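 note: plate controls were DMSO for no effect and ATA control for full effect; nearly all actives have a fitted effect of over 75% in size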
Chain of UniProt O95398 (O95398 whole entry, looked up): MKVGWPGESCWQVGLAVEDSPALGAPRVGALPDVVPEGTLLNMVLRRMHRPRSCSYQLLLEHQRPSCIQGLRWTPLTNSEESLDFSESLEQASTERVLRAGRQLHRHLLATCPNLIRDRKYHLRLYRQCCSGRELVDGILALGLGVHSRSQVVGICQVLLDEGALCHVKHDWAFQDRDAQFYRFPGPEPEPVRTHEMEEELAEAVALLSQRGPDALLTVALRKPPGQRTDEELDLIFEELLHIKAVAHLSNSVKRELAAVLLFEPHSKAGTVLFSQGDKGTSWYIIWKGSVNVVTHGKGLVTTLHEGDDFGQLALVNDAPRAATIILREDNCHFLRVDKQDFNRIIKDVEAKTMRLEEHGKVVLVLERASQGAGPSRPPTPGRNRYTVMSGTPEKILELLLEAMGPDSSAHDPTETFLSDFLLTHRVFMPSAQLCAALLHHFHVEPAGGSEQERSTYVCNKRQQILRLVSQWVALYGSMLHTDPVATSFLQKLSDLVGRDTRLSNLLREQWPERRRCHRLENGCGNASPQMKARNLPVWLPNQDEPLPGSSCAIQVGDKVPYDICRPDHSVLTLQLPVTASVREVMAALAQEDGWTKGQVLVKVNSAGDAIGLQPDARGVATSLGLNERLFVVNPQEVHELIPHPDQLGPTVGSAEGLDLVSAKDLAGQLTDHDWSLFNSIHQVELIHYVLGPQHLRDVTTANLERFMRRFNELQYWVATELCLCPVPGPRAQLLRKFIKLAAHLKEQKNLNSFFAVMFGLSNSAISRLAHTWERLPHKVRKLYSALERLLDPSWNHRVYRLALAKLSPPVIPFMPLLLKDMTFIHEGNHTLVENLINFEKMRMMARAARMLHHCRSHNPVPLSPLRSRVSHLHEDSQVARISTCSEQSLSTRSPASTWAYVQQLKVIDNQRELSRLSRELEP
Procedure, shortened: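 Nucleotide exchange followed as fluorescence loss when BODIPY-GDP leaves Rap1B (480 nm excitation, 540 nm emission), read at 5 min intervals over 30 min. Reaction: 100 nM EPAC1, 250 nM RAP1B-BODIPY-GDP, 50 uM GDP; ATA and DMSO define normalization.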

SMILES | activity change, negative = inhibition
O=C(Cc1ccc(Cl)c(Cl)c1)N1CCCCC1CN1CCCC1 (stereo unspecified) | inactive
S=C=S | inactive: 20.5%
C#CCOC(=O)C1=CCCN(C)C1 | inactive
CNC(C)CC1CCCCC1 (stereo unspecified) | inactive: 12.3%
CO[C@@H]1C[C@@H](C[C@H]2CC[C@H](C)[C@@H]([C@@H](C)C(=O)O)O2)O[C@]2(O[C@](C)([C@H]3CC[C@@](C)(C4OC([C@H]5O[C@@](O)(CO)[C@H](C)C[C@@H]5C)C[C@@H]4C)O3)C[C@H]2C)[C@@H]1C (stereo partly specified) | inactive: 42.7%
COCC(=O)N(c1c(C)cccc1C)C(C)C(=O)OC (stereo unspecified) | inactive: 20.9%
O=C(Nc1cccc(F)c1)N1CCCC2(CCN(C(=O)Oc3ccccc3)CC2)C1 | inactive: -12.6%
c1ccc(CCN2CCCC2)cc1 | inactive: 19.5%
O=C(O)CCCOc1ccc(Cl)cc1Cl | inactive
CC(N)(COP(=O)(O)Oc1ccccc1)C(=O)O (stereo unspecified) | inactive: 29.5%
O=C(NC(=O)c1ccccc1Cl)Nc1ccc(OC(F)(F)F)cc1 | inactive: -1.72%
NCC(CP(=O)(O)O)c1ccc(Cl)cc1 (stereo unspecified) | inactive
N[C@@H](Cn1cc(I)c(=O)[nH]c1=O)C(=O)O | inactive: -6.86%
c1cnc(N2CCCC3(CCNCC3)C2)nc1 | inactive: 9.73%
CCC(CO)NC(=O)C1C=C2c3cccc4[nH]cc(c34)CC2N(C)C1 (stereo unspecified) | inactive: -17.3%
CCCN1CCc2cccc3c2C1Cc1ccc(O)c(O)c1-3 (stereo unspecified) | inactive: 26.9%
CCCC(=O)OCC[N+](C)(C)C | inactive: 20.2%
c1ccc(C2CC2)c(OCC2=NCCN2)c1 | inactive
CN1Cc2c(ccc3c2OCO3)C2C(O)Cc3cc4c(cc3C21)OCO4 (stereo unspecified) | inactive
CN1C2CC3CC1C(O3)C2O (stereo unspecified) | inactive: -4.51%
CC[C@H]1C[C@@H]2C[C@H]3c4[nH]c5ccc(OC)cc5c4CCN(C2)[C@@H]13 | inactive: 24.3% [at 320 µM]
C[C@]12CCC(=O)C(O)=C1CC[C@@H]1[C@@H]2CC[C@]2(C)C(=O)CC[C@@H]12 | inactive: 19.9%
ClCCN(CCCl)/C(=C\c1ccccc1)c1ccnc2ccccc12 | inactive: 23.4%
C[C@]12CCC3C(CC[C@]4(O)CC(O)CC[C@@]34C=O)[C@]1(O)CCC2C1=CC(=O)OC1 (stereo partly specified) | inactive: 8.1%

SMILES | activity change, negative = inhibition
OC(O)C(Cl)(Cl)Cl | inactive: 15.2%
CNC(C)(C)Cc1ccccc1 | inactive
CCOP(=S)(OCC)Oc1cc(C)nc(C(C)C)n1 | inactive: 17.8%
CNC(Cc1c[nH]c2ccccc12)C(=O)O (stereo unspecified) | inactive: 16.2%
CN1C(=O)CN=C(c2ccccc2)c2cc([N+](=O)[O-])ccc21 | inactive: -5%
CC(=O)[C@H]1CC[C@H]2[C@@H]3CC[C@@H]4C[C@H](O)CC[C@]4(C)[C@H]3CC[C@]12C | inactive: -2.52%
CCC1C2CC3C4N(C)c5ccccc5[C@]45CC(C2C5O)N3C1O (stereo partly specified) | inactive: 9.23%
CCCN1CCc2cc(O)cc3c2[C@H]1Cc1ccc(O)c(O)c1-3 | inactive: -11% [at 75.8 µM]
OC[C@@H](O)[C@H]1O[C@@H]2O[C@H](C(Cl)(Cl)Cl)O[C@@H]2[C@H]1O | inactive: 13.5%
O=C(O)CCC1NCC2CC1CN1CCCCC21 (stereo unspecified) | inactive: 0.0753%
COc1cc(CCN)ccc1O | inactive: 11%
O=C(Oc1ccccc1)N1CCC2(CCN(Cc3nccs3)CC2)CC1 | inactive: 25.1%
C#CCN[C@H](C)Cc1ccccc1 | inactive: -1.49% [at 75.8 µM]
CCCN(CCC)[C@@H]1CCc2cccc(O)c2C1 | inactive
C[C@]12CC[C@H]3[C@@H](CCC4=CC(=O)CC[C@@]43C)[C@@H]1CC[C@H]2O | inactive: -3.2%
NCc1cc(=O)[nH]o1 | inactive
C[C@H]1CCC/C=C/C2C[C@H](O)C[C@H]2[C@H](O)/C=C/C(=O)O1 (stereo partly specified) | inactive: 22.6% [at 201 µM]
CN1C(=O)NC(=O)C(C)(C2=CCCCC2)C1=O (stereo unspecified) | inactive
CC(C)CN1CC2(CCN(C(=O)Oc3ccccc3)CC2)C1 | inactive: 6.58%
CCN1C[C@@]2(COC)C3[C@@H](OC)C4[C@@H]1[C@@]3(C1C[C@@]3(O)[C@H](OC(=O)c5ccccc5)C1[C@]4(OC(C)=O)[C@@H](O)[C@@H]3OC)[C@@H](OC)C[C@H]2O (stereo partly specified) | inactive: -10.5%
COC(=O)C(c1ccccc1)C1CCCCN1 (stereo unspecified) | inactive: 7.71%
COC(=O)c1cncn1C(C)c1ccccc1 (stereo unspecified) | inactive: 16.2%
ClC=C(Cl)Cl | inactive: 11.5%
C[C@H]1C(=O)O[C@@H]2CCN3CC=C(COC(=O)[C@](C)(O)[C@]1(C)O)[C@H]23 | inactive: 7.09%

SMILES | activity change, negative = inhibition
CCCN1C[C@H](C)N([C@H](c2ccc(C(=O)N(CC)CC)cc2)c2cccc(OC)c2)C[C@H]1C | inactive
Clc1ccc([C@@H]2C[C@H]3CC[C@@H]2N3)cn1 | inactive
O=C(O)COc1cc(Cl)c(Cl)cc1Cl | inactive: 3.94%
O=[N+]([O-])/N=C1\NCCN1Cc1ccc(Cl)nc1 | inactive
CC(=O)OCC1=C(C(=O)O)N2C(=O)[C@@H](N)[C@H]2SC1 | inactive: 12.5% [at 75.8 µM]
CCC1C(=O)OCC1Cc1cncn1C (stereo unspecified) | inactive
CC(C)C[C@H](CN)CC(=O)O | inactive: 13.7%
COc1cc2c(cc1OC)[C@@H]1C(=O)c3ccc4oc(C(C)C)cc4c3OC1CO2 (stereo partly specified) | inactive: 3.72%
CN(C)C(=S)SSC(=S)N(C)C | inactive
C[C@H](NC(=O)[C@@H](N)Cc1ccc(O)cc1)C(=O)N[C@@H](Cc1ccccc1)C(=O)N[C@@H](Cc1ccccc1)C(N)=O (H-YAFF-NH2) | inactive: 6.98% [at 15.3 µM]
CC1CC[C@@]2(NC1)O[C@@H]1C[C@H]3C4CC=C5C[C@@H](O)CC[C@]5(C)C4CC[C@]3(C)[C@H]1[C@@H]2C (stereo partly specified) | inactive: 13.2%
CC(C)(C)NCC(O)c1ccccc1Cl (stereo unspecified) | inactive
CC1(C(=O)O)C2CCC(O2)C1(C)C(=O)O (stereo unspecified) | inactive: -6.05% [at 75.8 µM]
Oc1ccc([C@H]2CNCc3c2ccc(O)c3O)cc1O | inactive: -17.1%
CCCN(CCC)[C@@H]1CCc2c(OC)cccc2[C@@H]1C | inactive: 7.71%
CN1[C@@H]2CC[C@H]1CC(OC1c3ccccc3CCc3ccccc31)C2 (stereo partly specified) | inactive: 4.92% [at 75.8 µM]
O=C1CCC[C@H]2[C@H]3CCCN4CCCC(=CN12)[C@@H]34 | inactive: -2.42%
COc1cc2c(c(OC)c1OC)-c1ccc(O)c(=O)cc1[C@@H](NC(C)=O)CC2 | inactive: 18.2%
O=C1CCCC2[C@@H]3CCCN4CCC[C@@H](CN12)C34 (stereo partly specified) | inactive: 7.89%
CC(C)C1C(=O)N2CCC[C@H]2[C@]2(O)O[C@](NC(=O)[C@@H]3C=C4c5cccc6[nH]cc(c56)C[C@H]4N(C)C3)(C(C)C)C(=O)N12 (stereo partly specified) | inactive: 37.4%
CN1CCCC(=C(c2cccs2)c2cccs2)C1 | inactive: 11.5%
C#C[C@]1(O)C=C[C@H]2[C@@H]3CCC4=CC(=O)CC[C@@H]4[C@H]3CC[C@@]21CC | inactive: 18.5%
Cc1nnc2ccc(-c3cccc(C(F)(F)F)c3)nn12 | inactive: -1.15%
